Numbering of substitutions follows the chain as printed; changes in the protein carry UniProt numbers. Some of the results follow.

Results on 31 molecules are retold here after publication PMC9911399, “Two distinct binding modes provide the RNA-binding protein RbFox with extraordinary sequence specificity”.

The labels stand for the following.
B1: UACGGGU (DNA:RNA)
RNA: GGGAGACCGGAAUUCAGAUUGUCCUACGGGUUUAAAUCCCGUCGUAGCCACCA
DNA 1: CAATCTGAATTCCGGTCTCCC
DNA 2: TGGTGGCTACGACGGGATT
B2: UAUCUUG (DNA:RNA)
RNA: B1 RNA with C27U, G28C, G29U, G30U, U31G
DNA 1: CAATCTGAATTCCGGTCTCCC
DNA 2: TGGTGGCTACGACGGGATT
B3: GGGCACU (DNA:RNA)
RNA: B1 RNA with U25G, A26G, C27G, G28C, G29A, G30C
DNA 1: CAATCTGAATTCCGGTCTCCC
DNA 2: TGGTGGCTACGACGGGATT
B4: AGGAGUA (DNA:RNA)
RNA: B1 RNA with U25A, A26G, C27G, G28A, G30U, U31A
DNA 1: CAATCTGAATTCCGGTCTCCC
DNA 2: TGGTGGCTACGACGGGATT
B5: UUGACUC (DNA:RNA)
RNA: B1 RNA with A26U, C27G, G28A, G29C, G30U, U31C
DNA 1: CAATCTGAATTCCGGTCTCCC
DNA 2: TGGTGGCTACGACGGGATT
B6: GCGUAUC (DNA:RNA)
RNA: GGGAGACCGGAAUUCAGAUUGUCCGCGUAUCUUAAAUCCCGUCGUAGCCACCA
DNA 1: CAATCTGAATTCCGGTCTCCC
DNA 2: TGGTGGCTACGACGGGATT
B7: CCACUAG (DNA:RNA)
RNA: B6 RNA with G25C, G27A, U28C, A29U, U30A, C31G
DNA 1: CAATCTGAATTCCGGTCTCCC
DNA 2: TGGTGGCTACGACGGGATT
B8: ACCUGCA (DNA:RNA)
RNA: B6 RNA with G25A, G27C, A29G, U30C, C31A
DNA 1: CAATCTGAATTCCGGTCTCCC
DNA 2: TGGTGGCTACGACGGGATT
B9: CUACCCC (DNA:RNA)
RNA: B6 RNA with G25C, C26U, G27A, U28C, A29C, U30C
DNA 1: CAATCTGAATTCCGGTCTCCC
DNA 2: TGGTGGCTACGACGGGATT
B10: CGUACAU (DNA:RNA)
RNA: B1 RNA with U25C, A26G, C27U, G28A, G29C, G30A
DNA 1: CAATCTGAATTCCGGTCTCCC
DNA 2: TGGTGGCTACGACGGGATT
B11: AGAAAUC (DNA:RNA)
RNA: B6 RNA with G25A, C26G, G27A, U28A
DNA 1: CAATCTGAATTCCGGTCTCCC
DNA 2: TGGTGGCTACGACGGGATT
B12: GACGUCG (DNA:RNA)
RNA: B1 RNA with U25G, G29U, G30C, U31G
DNA 1: CAATCTGAATTCCGGTCTCCC
DNA 2: TGGTGGCTACGACGGGATT
B13: UCCGUUU (DNA:RNA)
RNA: B1 RNA with A26C, G29U, G30U
DNA 1: CAATCTGAATTCCGGTCTCCC
DNA 2: TGGTGGCTACGACGGGATT
B14: AAGCUUU (DNA:RNA)
RNA: B6 RNA with G25A, C26A, U28C, A29U, C31U
DNA 1: CAATCTGAATTCCGGTCTCCC
DNA 2: TGGTGGCTACGACGGGATT
B15: UGCAAAC (DNA:RNA)
RNA: B6 RNA with G25U, C26G, G27C, U28A, U30A
DNA 1: CAATCTGAATTCCGGTCTCCC
DNA 2: TGGTGGCTACGACGGGATT
B16: AUCCCGA (DNA:RNA)
RNA: B1 RNA with U25A, A26U, G28C, G29C, U31A
DNA 1: CAATCTGAATTCCGGTCTCCC
DNA 2: TGGTGGCTACGACGGGATT
B17: AAUACCC (DNA:RNA)
RNA: B6 RNA with G25A, C26A, G27U, U28A, A29C, U30C
DNA 1: CAATCTGAATTCCGGTCTCCC
DNA 2: TGGTGGCTACGACGGGATT
B18: UCUCACG (DNA:RNA)
RNA: B6 RNA with G25U, G27U, U28C, U30C, C31G
DNA 1: CAATCTGAATTCCGGTCTCCC
DNA 2: TGGTGGCTACGACGGGATT
B19: AACUUCA (DNA:RNA)
RNA: B1 RNA with U25A, G28U, G29U, G30C, U31A
DNA 1: CAATCTGAATTCCGGTCTCCC
DNA 2: TGGTGGCTACGACGGGATT
B20: AACACGC (DNA:RNA)
RNA: B1 RNA with U25A, G28A, G29C, U31C
DNA 1: CAATCTGAATTCCGGTCTCCC
DNA 2: TGGTGGCTACGACGGGATT
B21: GUAUCUA (DNA:RNA)
RNA: B6 RNA with C26U, G27A, A29C, C31A
DNA 1: CAATCTGAATTCCGGTCTCCC
DNA 2: TGGTGGCTACGACGGGATT
B22: CAGAUCG (DNA:RNA)
RNA: B6 RNA with G25C, C26A, U28A, A29U, U30C, C31G
DNA 1: CAATCTGAATTCCGGTCTCCC
DNA 2: TGGTGGCTACGACGGGATT
B23: CUGAGGG (DNA:RNA)
RNA: B1 RNA with U25C, A26U, C27G, G28A, U31G
DNA 1: CAATCTGAATTCCGGTCTCCC
DNA 2: TGGTGGCTACGACGGGATT
B24: UGCUCAC (DNA:RNA)
RNA: B6 RNA with G25U, C26G, G27C, A29C, U30A
DNA 1: CAATCTGAATTCCGGTCTCCC
DNA 2: TGGTGGCTACGACGGGATT
B25: CGAACAA (DNA:RNA)
RNA: GGGAGACCGGAAUUCAGAUUGUCCCGAACAAUUAAAUCCCGUCGUAGCCACCA
DNA 1: CAATCTGAATTCCGGTCTCCC
DNA 2: TGGTGGCTACGACGGGATT
B26: GCAGAGU (DNA:RNA)
RNA: B6 RNA with G27A, U28G, U30G, C31U
DNA 1: CAATCTGAATTCCGGTCTCCC
DNA 2: TGGTGGCTACGACGGGATT
B27: AGACCCG (DNA:RNA)
RNA: B25 RNA with C25A, A28C, A30C, A31G
DNA 1: CAATCTGAATTCCGGTCTCCC
DNA 2: TGGTGGCTACGACGGGATT
B28: GAUUGGU (DNA:RNA)
RNA: B1 RNA with U25G, C27U, G28U
DNA 1: CAATCTGAATTCCGGTCTCCC
DNA 2: TGGTGGCTACGACGGGATT
B29: CUGUCGC (DNA:RNA)
RNA: B6 RNA with G25C, C26U, A29C, U30G
DNA 1: CAATCTGAATTCCGGTCTCCC
DNA 2: TGGTGGCTACGACGGGATT
B30: CACGCAC (DNA:RNA)
RNA: B25 RNA with G26A, A27C, A28G, A31C
DNA 1: CAATCTGAATTCCGGTCTCCC
DNA 2: TGGTGGCTACGACGGGATT
B31: UGGCUAC (DNA:RNA)
RNA: B25 RNA with C25U, A27G, A28C, C29U, A31C
DNA 1: CAATCTGAATTCCGGTCTCCC
DNA 2: TGGTGGCTACGACGGGATT

This test has as its target T1, RBFOX1 RRM RbFoxmut (Fox-RRM*) (Homo sapiens, UniProt Q9NWB1 109-208, R118D;E147R;N151S;E152T).
T1 sequence: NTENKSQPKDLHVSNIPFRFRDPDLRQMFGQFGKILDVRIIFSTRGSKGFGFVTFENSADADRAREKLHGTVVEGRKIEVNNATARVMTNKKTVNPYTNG
In words: EMSA; HiTS-Eq, 1 nM pool, 10 min; buffer printed only for the single-RNA assays: 10 mM Tris pH 7.5, 150 mM NaCl, 3.4 mM EDTA, 0.001% NP-40, 30 C. The following applies: tags: His6 N-terminal (pET28a); label: 5' 32P. In a few lines:
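A pool of RNA with 7 randomized nucleotides, 5′-radiolabelled and with DNA-annealed flanks, was equilibrated at 1 nM for 10 min in 50 µL with purified RbFox RRM, wild type or mutant, across increasing protein concentrations. Free RNA was separated by 8% native PAGE, excised, reverse-transcribed, barcoded by PCR and sequenced. Relative association constants were obtained from read-count changes of each RNA species versus the control reaction and normalised to the cognate motif.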
For orientation: Mobility shift assays separate free from complexed probe on a gel.
For B1, the binding signal is 0.09 KA relative to UGCAUGU. B2: the binding signal is 0.0958 KA relative to UGCAUGU.

Take B3: the binding signal is 0.0517 KA relative to UGCAUGU.

With B4, the binding signal is 0.168 KA relative to UGCAUGU.

In the case of B5, the binding signal was 0.0703 KA relative to UGCAUGU.

Regarding B6, the binding signal is 0.194 KA relative to UGCAUGU.

For the molecule B7, the binding signal was 0.106 KA relative to UGCAUGU. With B8, the binding signal was 0.198 KA relative to UGCAUGU. With B9 the figure was 0.057 KA relative to UGCAUGU; with B10, 0.0548 KA relative to UGCAUGU. In the case of B11, the binding signal is 0.0464 KA relative to UGCAUGU.

In the case of B12, the binding signal is 0.123 KA relative to UGCAUGU.

In the case of B13, the binding signal is 0.0695 KA relative to UGCAUGU.

B14: the binding signal was 0.0764 KA relative to UGCAUGU.

As to B15, the binding signal is 0.0759 KA relative to UGCAUGU. Consider B16, for which the binding signal was 0.0862 KA relative to UGCAUGU. The figure for B17 is 0.0723 KA relative to UGCAUGU. In the case of B18, the binding signal was 0.123 KA relative to UGCAUGU.

For B19, the binding signal is 0.121 KA relative to UGCAUGU. Regarding B20, the binding signal is 0.0609 KA relative to UGCAUGU. Regarding B21, the binding signal is 0.227 KA relative to UGCAUGU.

Turning to B22, the binding signal is 0.0942 KA relative to UGCAUGU.

B23: the binding signal was 0.066 KA relative to UGCAUGU. For B24, the binding signal was 0.119 KA relative to UGCAUGU. As for B25, the binding signal was 0.0349 KA relative to UGCAUGU.

In the case of B26, the binding signal is 0.125 KA relative to UGCAUGU. With B27, the binding signal is 0.0812 KA relative to UGCAUGU.

As to B28, the binding signal was 0.172 KA relative to UGCAUGU.

Regarding B29, the binding signal was 0.0972 KA relative to UGCAUGU. In the case of B30, the binding signal was 0.0772 KA relative to UGCAUGU. The figure for B31 is 0.0987 KA relative to UGCAUGU.
